29 molecules from patent US6448281B1 (Boehringer Ingelheim (Canada) Ltd., priority 2000, dated 2002) can be followed below.

In the assay the target is hepatitis C virus RNA dependent polymerase (NS5B) (Hepacivirus hominis (Hepatitis C virus), UniProt P26663). In words: Inhibition of NS5B RNA dependent RNA polymerase activity (SPA, UMP-[5,6 3H] incorporation).
[1] abbreviates: IC50 μM, first compound table (printed title TABLE 10; Table 1).

What is called IC50 is the point on the concentration scale where inhibition reaches its midpoint.

SMILES strings stand for the structures.

Take `O=C(N[C@@H](Cc1c[nH]c2ccc(Nc3c(O)c(=O)c3=O)cc12)C(=O)O)c1ccc2c(c1)nc(-c1ccoc1)n2C1CCCCC1` [Entry 11027, (S)-2-{[1-(1-Cyclohexyl-2-furan-3-yl-1H-benzimidazol-5-yl)-methanoyl]-amino}-3-[5-(2-hydroxy-3,4-dioxo-cyclobut-1-enylamino)-1H-indol-3-yl]-propionic Acid]: the 50% inhibitory concentration (IC50) (IC50, Table 11) is less than 1 µM.

For `O=C(O)COc1ccc2c(c1)c(C[C@H](NC(=O)c1ccc3c(c1)nc(-c1ccoc1)n3C1CCCCC1)C(=O)O)cn2CC(=O)O`, the IC50 (IC50, Table 11) was less than 1 µM.

For `O=C(N[C@@H](Cc1ccc(O)c(-c2nn[nH]n2)c1)C(=O)O)c1ccc2c(c1)nc(-c1ccoc1)n2C1CCCCC1` [Entry 16056, (S)-2-{[1-(1-Cyclohexyl-2-furan-3-yl-1H-benzimidazol-5-yl)-methanoyl]-amino}-3-[4-hydroxy-3-(2H-tetrazol-5-yl)-phenyl]-propionic Acid], the 50% inhibitory concentration (IC50) (IC50, Table 16) was less than 1 µM.

Regarding `O=C(CCNC(=O)c1ccc2c(c1)nc(-c1ccoc1)n2C1CCCCC1)NC(Cc1cnc[nH]1)C(=O)O` (racemic) [Entry 1228, 2-(3-{[1-(1-Cyclohexyl-2-furan-3-yl-1H-benzimidazol-5-yl)-methanoyl]-amino}-propanoylamino)-3-(3H-imidazol-4-yl)-propionic Acid], the IC50 under setting [1] was 10 to 25 µM.

On to `CN(C)CCCNC(=O)[C@H](Cc1c[nH]c2ccc(O)cc12)NC(=O)c1ccc2c(c1)nc(-c1ccoc1)n2C1CCCCC1` [Entry 13018, 1-Cyclohexyl-2-furan-3-yl-1H-benzimidazole-5-carboxylic Acid [(S)-1-(3-Dimethylamino-propylcarbamoyl)-2-(5-hydroxy-1H-indol-3-yl)-ethyl]-amide], for which, under “IC50, Table 13”, the half-inhibitory concentration (IC50) is less than 1 µM.

`O=C(O)c1cccc(-c2nc3cc(C(=O)O)ccc3n2C2CCCCC2)c1` [Entry 7007] displayed a 50% inhibitory concentration (IC50) (IC50 μM, Table 7) of 10 to 25 µM.

As to `CN(C)c1nc([C@H](Cc2ccc(OCC(=O)O)cc2)NC(=O)c2ccc3c(c2)nc(-c2ccoc2)n3C2CCCCC2)cs1` [Entry 1141, {4-[(S)-2-{[1-(1-Cyclohexyl-2-furan-3-yl-1H-benzimidazol-5-yl)-methanoyl]-amino}-2-(2-dimethylamino-thiazol-4-yl)-ethyl]-phenoxy}-acetic Acid], the IC50 under setting [1] lay in the range of 1 to 5 µM.

The molecule `Cn1cc(C[C@H](NC(=O)c2ccc3c(c2)nc(-c2ccoc2)n3C2CCCCC2)C(=O)O)c2cc(OCC(=O)O)ccc21` [Entry 11016] gave a 50% inhibitory concentration (IC50) (IC50, Table 11) of less than 1 µM.

`COc1ccc(C(NC(=O)c2ccc3c(c2)nc(-c2ccccc2)n3C2CCCCC2)C(=O)O)cc1OC` (centres unmarked) [Entry 2064] displayed an IC50 (IC50 μM, Table 2) of 1 to 5 µM.

`O=C(NC(Cc1c[nH]c2ccc(O)cc12)C(=O)O)c1ccc2c(c1)nc(C1CCCO1)n2C1CCCCC1` (centres unmarked) [Entry 2121] yielded an IC50 (IC50 μM, Table 2) of 1 to 5 µM.

With `Cc1cnc(-c2nc3cc(C(=O)N[C@@H](Cc4c[nH]c5ccc(O)cc45)C(=O)O)ccc3n2C2CCCCC2)cn1` [Entry 2143], the IC50 (IC50 μM, Table 2) was less than 1 µM.

In the case of `O=CNc1ccc(C[C@H](NC(=O)c2ccc3c(c2)nc(-c2ccoc2)n3C2CCCCC2)C(=O)O)cc1` [Entry 16028, (S)-2-{[1-(1-Cyclohexyl-2-furan-3-yl-1H-benzoimidazol-5-yl)-methanoyl]-amino}-3-(4-formylaminophenyl)-propionic Acid], the IC50 (IC50, Table 16) was less than 1 µM.

For the molecule `Cc1c(C(=O)N[C@@H](Cc2c[nH]c3ccc(OCC(=O)O)cc23)C(=O)O)ccc2c1nc(-c1ccoc1)n2C1CCCCC1` [Entry 5008, (S)-3-(5-Carboxymethoxy-1H-indol-3-yl)-2-{[1-(1-cyclohexyl-2-furan-3-yl-4-methyl-1H-benzimidazol-5-yl)-methanoyl]-amino}-propionic acid], the IC50 (IC50 μM, Table 5) was less than 1 µM.

`NC(=O)C(=O)Nc1ccc2[nH]cc(C[C@H](NC(=O)c3ccc4c(c3)nc(-c3ccoc3)n4C3CCCCC3)C(N)=O)c2c1` [Entry 13009, N-[3-((S)-2-Carbamoyl-2-{[1-(1-cyclohexyl-2-furan-3-yl-1H-benzimidazol-5-yl)-methanoyl]-amino}-ethyl)-1H-indol-5-yl]-oxalamide] returned a concentration for half-maximal inhibition (IC50) (IC50, Table 13) of less than 1 µM.

For `O=C(N[C@@H](Cc1c[nH]c2ccc(O)cc12)C(=O)O)c1ccc2c(c1)nc(-c1ccoc1)n2C1CCCC1` [Entry 22002], the IC50 (IC50 μM, Table 22) is less than 1 µM.

Consider `COc1ccc(C[C@H](NC(=O)c2ccc3c(c2)nc(-c2ccoc2)n3C2CCCCC2)C(=O)O)cc1OC` [Entry 16007], for which the IC50 (IC50, Table 16) was less than 1 µM.

In turn, `CC1CCC(C)C1n1c(-c2ccoc2)nc2cc(C(=O)NC(Cc3c[nH]c4ccc(O)cc34)C(=O)O)ccc21` (centres unmarked) [Entry 22011] came in with a half-inhibitory concentration (IC50) (IC50 μM, Table 22) of less than 1 µM.

Under setting [1], `O=C(O)CNC(=O)N1CCC(NC(=O)c2ccc3c(c2)nc(-c2ccoc2)n3C2CCCCC2)C1` (centres unmarked) [Entry 1191] yielded an IC50 of 10 to 25 µM.

Take `Nc1ccc(C[C@H](NC(=O)c2ccc3c(c2)nc(-c2ccoc2)n3C2CCCCC2)C(=O)O)cc1` [Entry 16003]: the concentration for half-maximal inhibition (IC50) (IC50, Table 16) is less than 1 µM.

Regarding `O=C(O)C=Cc1ccc(OC2CC(C(=O)O)N(C(=O)c3ccc4c(c3)nc(-c3ccoc3)n4C3CCCCC3)C2)cc1` [Entry 6003, (2S,4R)4-[4-((Z)-2-Carboxy-viny)-phenoxy]-1-[1-(1-cyclohexyl-2-furan-3-yl-1H-benzimidazol-5-yl)-methanoyl]-pyrrolidine-2-carboxylic Acid], the half-maximal inhibitory concentration (IC50) (IC50 μM, Table 6) was 5 to 10 µM.

In the case of `O=C(N[C@@H](Cc1ccc(O)cc1)C(=O)O)c1ccc2c(c1)nc(-c1ccccn1)n2C1CCCCC1` [Entry 2060], the 50% inhibitory concentration (IC50) (IC50 μM, Table 2) was in the range of 1 to 5 µM.

Under setting [1], `O=C(O)c1cccc(CN2CCC(CNC(=O)c3ccc4c(c3)nc(-c3ccoc3)n4C3CCCCC3)CC2)c1` [Entry 1288] yielded an IC50 of 1 to 5 µM.

Where the note is “IC50 μM, Table 2”, `CN(C)c1cccc2c(S(=O)(=O)NCCNC(=O)c3ccc(-c4nc5cc(C(=O)N[C@@H](Cc6c[nH]c7ccc(OCC(=O)O)cc67)C(=O)O)ccc5n4C4CCCCC4)cc3)cccc12` [Entry 2130, (S)-3-(5-Carboxymethoxy-1H-indol-3-yl)-2-{[1-(1-cyclohexyl-2-{4-[2-(5-dimethylamino-naphthalene-1-sulfonylamino)-ethylcarbamoyl]-phenyl}-1H-benzimidazol-5-yl)-methanoyl]-amino}-propionic Acid] gave an IC50 of 1 to 5 µM.

For the molecule `COc1ccc(C(NC(=O)c2ccc3c(c2)nc(-c2ccoc2)n3C2CCCCC2)C(=O)O)cc1` (centres unmarked) [Entry 1014], the IC50 under setting [1] fell in the range of 1 to 5 µM.

Under “IC50 μM, Table 2”, `O=C(N[C@@H](Cc1c[nH]c2ccc(O)cc12)C(=O)O)c1ccc2c(c1)nc(-c1ccc(C(F)(F)F)cc1)n2C1CCCCC1` [Entry 2138] returned an IC50 of 1 to 5 µM.

Under “IC50 μM, Table 2”, `COc1ccc(C(NC(=O)c2ccc3c(c2)nc(-c2ccc4c(c2)OCCO4)n3C2CCCCC2)C(=O)O)cc1OC` (centres unmarked) [Entry 2036] yielded an IC50 of 10 to 25 µM.

With `CC1CCCCC1n1c(-c2ccoc2)nc2cc(C(=O)NC(Cc3c[nH]c4ccc(O)cc34)C(=O)O)ccc21` (centres unmarked) [Entry 3024], the IC50 (IC50 μM, Table 3) was 1 to 5 µM.

`O=C(NC(Cc1ccc(O)cc1)c1cccnc1)c1ccc2c(c1)nc(-c1ccoc1)n2C1CCCCC1` (racemic) [Entry 1260, 1-Cyclohexyl-2-furan-3-yl-1H-benzimidazole-5-carboxylic Acid [2-(4-hydroxy-phenyl)-1-pyridin-3-yl-ethyl]-amide] yielded a 50% inhibitory concentration (IC50) under setting [1] of 1 to 5 µM.

Under “IC50 μM, Table 22”, `O=C(N[C@@H](Cc1c[nH]c2ccc(O)cc12)C(=O)O)c1ccc2c(c1)nc(-c1ccoc1)n2[C@@H]1CCCC[C@H]1O` [Entry 22003] had a half-inhibitory concentration (IC50) of less than 1 µM.
